{"source": "PubChem BioAssay AID1794743", "about": "(DTP/NCI, 2022)", "test_system": "DMS 114", "assay": "NCI-60 one-dose screen, 48 h (100 = growth as untreated, 0 = no growth, -100 = all killed)", "conditions": "2.5 mM", "procedure": "Growth inhibition of the DMS 114 human tumor cell line is measured as a screen for anti-cancer activity. Cells are grown in 96 well plates and exposed to the test compound for 48 hours. Compounds are tested at a single concentration, which is 10^-5 M for most compounds. The reported endpoint is percent growth (GI% or GIPRCNT), where numbers from 0 - 100% represent growth inhibition, and numbers from -100% - 0 represent cell death. For example, a value of 40 represents 60% growth inhibition. A value of 0 means no net growth occurred over the course of the experiment. A value of -40 indicates 40% of cells at the beginning of the experiment died by the end of the experiment. A value of -100 means all cells are dead at the end of the experiment.\nNCI-60 Human Tumor Cell Lines Screen was performed using the standard one-dose NCI protocol, which is described in more detail at https://dtp.cancer.gov/discovery_development/nci-60/default.htm.\nCompounds with GIPRCNT values below 10 were considered active. Activity score was based on GIPRCNT using the following formula: […]\nScore is 0 for GIPRCNT values of 100 or above, 50 for GIPRCNT values of 0, and 100 for GIPRCNT values of -100.", "note": "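Growth was measured after 48 h exposure to one concentration of compound in 96-well plates. Values under 10 count as active.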 Some entries of the source have several records that differ or are many. This is not the full list of results. An entry can have further records. This drug was run again and again over the years, at its own concentration, as given; one value stands for one run. Counts like (3×) count equal records among those shown."}
{"smiles": "O=c1[nH]cc(F)c(=O)[nH]1", "values": [{"measurement": "growth", "setting": "runs of 1991", "result": "41.1, 39.2, -50, -5.8, 31, 24.3, 17, 22.6, -3.29, 34.1, 15.6, 21.2, 22.8%"}, {"measurement": "growth", "setting": "runs of 1992", "result": "-8.67, -10.9, 21.3, -6.63, 5.1, 21.2, 23.9, 28.7, 15.5, 13.5 (2×), 18.1 (2×), -1.97, 27.9, 17.6, 8.78, 19.9, 15.4 (3×), 99, 17.7 (2×), 14.1, 33.8, 7.54, 20.6, 3.23, 23.5 (2×), 24.6 (2×), 31.3, 28.1, 18.8, 2.77, 12.1, 2.26, 5.09, 18.7, -8.73, 14.4, -7.68, 19.8, -16.9, 5.66, 24.9, 25.4, 25.2, 11.3, -11.5, 10.8, 12, 12.5, 7.67, 6.61, 2.32, 8.35, 1.99, -21.1, 17.9, -3.9, 3.71, 9.36, 5.89, -4.05, -5.12, 25, 2.92, -1.4, 15.3, 16.2, -13.3, -4.58, 32.5, 33.2, 4.44, -6.33, 8.23, 19.4, -10.6, 0.0521, 45.6, 8.74, 27.3, 15.7%"}]}
